The whole screen tested about 100,000 compounds, of which about 250 (0.25%) were called active. The inconclusive results got no clear call from the source; some entries with a clear call stand among them for comparison. Calls come from the whole dose curve; as a rule, active = well fitted inhibition curve with a large enough effect; inconclusive = small, poorly fitted or top-dose-only effect; inactive = flat fitted curve, though single readings scatter. No potency is given beside an inconclusive call; the fits are too rough.
These compounds were tested against Alanine aminotransferase 2 (Homo sapiens) (UniProt Q8TD30) (assay: Primary qHTS assay for inhibitors of Glutamate pyruvate transaminase 2 (GPT2)). Settings: Recombinant GPT2, coupled pyruvate oxidase/HRP Amplex Red fluorescence; series mostly up to 57.7 µM.
UniProt Q8TD30, sequence (Q8TD30 whole entry, looked up): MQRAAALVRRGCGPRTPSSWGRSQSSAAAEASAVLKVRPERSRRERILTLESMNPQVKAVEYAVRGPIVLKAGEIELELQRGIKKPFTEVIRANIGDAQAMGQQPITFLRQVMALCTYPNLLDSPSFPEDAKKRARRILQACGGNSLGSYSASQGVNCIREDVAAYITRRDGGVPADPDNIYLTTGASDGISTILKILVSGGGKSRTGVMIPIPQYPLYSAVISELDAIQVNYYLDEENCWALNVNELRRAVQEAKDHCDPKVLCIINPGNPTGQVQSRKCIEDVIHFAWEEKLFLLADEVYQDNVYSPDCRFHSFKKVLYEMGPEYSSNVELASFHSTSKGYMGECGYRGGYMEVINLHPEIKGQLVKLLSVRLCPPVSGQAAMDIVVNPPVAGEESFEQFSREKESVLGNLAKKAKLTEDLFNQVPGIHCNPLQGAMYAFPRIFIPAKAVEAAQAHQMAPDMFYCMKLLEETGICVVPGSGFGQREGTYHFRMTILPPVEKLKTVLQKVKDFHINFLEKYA
How it was run: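 Recombinant GPT2 (10ng/uL) with 250uM a-KG and 2mM L-alanine, 30 min at room temperature, in HEPES pH 7.5 buffer. Pyruvate detected by pyruvate oxidase/HRP/Amplex Red fluorescence after 30 min in the dark; AOA (50uM) as positive control.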
In the case of `Cc1cc(C)n(Cc2ccc(C(=O)NCC3Cn4cccc4CN3Cc3ccccc3)o2)n1` (configuration not stated), the Potency is reported as “inactive”.
In the case of `CCCN(CC1CCOC1)C(=O)CCCc1ccccc1` (configuration not stated), the Potency is reported as inconclusive [inhibitor, single point].
In the case of `CCOc1ccccc1NC(=O)Nc1ccc(-c2nnc3n2CCCC3)cc1`, the Potency is reported as “inactive”.
In the case of `COCCn1nnnc1C1CC2(CCOCC2)C(=O)N1Cc1ccc(C)c(C)c1` (configuration not stated), the Potency is reported as inconclusive [inhibitor, full curve, poor fit].
With `COc1ccc(-c2cc(N3CCC(NC(=O)c4ccccc4Cl)C3)n[nH]2)cc1` (configuration not stated) the Potency was inconclusive [inhibitor, partial curve, poor fit].
In the case of `CC1(C)[C@H](Cc2cc(CN3CCN(c4ccccc4)CC3)on2)C[C@@H]1NC(=O)Nc1ccc(F)cc1`, the Potency is reported as inconclusive [inhibitor, partial curve, poor fit].
`Cn1cc(CNC(=O)C[C@@H]2C[C@H]3O[C@H](CNC(=O)Nc4cccc(Cl)c4)[C@@H](O)[C@H]3O2)cn1` was tested, and the Potency was “inactive”.
`Cc1cc(CNc2ccc(-c3nc(CCCc4ccccc4)no3)cn2)no1` was tested, and the Potency was inconclusive [inhibitor, single point].
`CCNC(=O)N1CCC(CCOC)(NC(=O)c2cccs2)CC1` was tested, and the Potency was inconclusive [inhibitor, full curve, poor fit].
For `COC(=O)[C@@H]1Cc2ncn(Cc3ccccc3)c2CN1S(=O)(=O)c1cccs1`, the Potency was “inactive”.
In the case of `CC1=C[C@@H](CC#N)[C@H](C(C)C)C[C@H]1CC(=O)NC1CCCCC1`, the Potency is reported as “inactive”.
`C[S+](=O)([O-])c1ccc(-c2cc(C(=O)NCC(F)F)nn3cccc23)cc1` was tested, and the Potency was “inactive”.
`OC1(CN2CCN(CCc3ccccn3)CC2)CCCNC1` (configuration not stated) was tested, and the Potency was “inactive”.
In the case of `COC1C(=O)N(c2cccc(F)c2)C12CCN(C(=O)NCc1ccc(C)cc1)CC2` (configuration not stated), the Potency is reported as inconclusive [inhibitor, single point].
With `Cc1ccc(NC(=O)N[C@H]2C[C@@](O)(C(=O)N[C@H](CC(C)C)C(N)=O)C[C@@H](O)[C@@H]2O)cc1` the Potency was “inactive”.
`CCOC(=O)c1cc(=O)c2c(OCC(COc3cccc4oc(C(=O)OCC)cc(=O)c34)OC(=O)[C@@H](N)CCCCN)cccc2o1` was tested, and the Potency was inconclusive [inhibitor, single point].
In the case of `C=CCCC(CN1CCSCC1)Oc1nccc(C)n1` (configuration not stated), the Potency is reported as inconclusive [inhibitor, full curve, poor fit].
With `COCc1ccc2c(c1)c(OC(C)(C)C(=O)NCCCN1CCCC1=O)nn2CCC(C)C` the Potency was “inactive”.
For `CS(=O)(=O)CCC(=O)N1CCC2(CC1)[C@H](O)C[C@@H]2OCCN`, the Potency was inconclusive [inhibitor, partial curve, poor fit].
For `COc1ccc(C(C(=O)O)N2CCCN(c3ncccn3)CC2)c(OC)n1` (configuration not stated), the Potency was inconclusive [inhibitor, single point].
In the case of `CN(Cc1cn(C)c2ccccc12)C1CCc2nn(CC3CC3)c(=O)n2CC1` (configuration not stated), the Potency is reported as “inactive”.
With `CNC(=O)c1cc[nH]c1C1CCCN(Cc2ccc3c(c2)CCO3)C1` (configuration not stated) the Potency was inconclusive [inhibitor, single point].
With `O=C(Nc1cccc(-n2cccn2)c1)C1CCCN(C(=O)N2CCOCC2)C1` (configuration not stated) the Potency was inconclusive [inhibitor, full curve, poor fit].
`COc1ccc(-c2cc(N3CCCN(C(=O)Cc4ccccc4Br)CC3)n[nH]2)cc1` was tested, and the Potency was inconclusive [inhibitor, partial curve, poor fit].
With `Cc1cnc(C(=O)N2CCc3onc(-c4ccc(F)c(F)c4)c3C2)cn1` the Potency was inconclusive [inhibitor, single point].
`O=C1Nc2ccccc2C12CCN(Cc1ccc(F)cc1)C2` (configuration not stated) was tested, and the Potency was “inactive”.
`Cc1nc(NC(=O)C2c3ccccc3C(=O)N(C3CCCC3)C23CCCC3)sc1C` (configuration not stated) was tested, and the Potency was inconclusive [inhibitor, single point].
With `O=c1n(-c2cccc(Cl)c2)nc2n1CCN(Cc1ccccc1)C2` the Potency was “inactive”.
For `CN1C(=O)[C@@H]2C[C@@H](O)CN2C2(CN(Cc3ccoc3)C2)C1=O`, the Potency was inconclusive [inhibitor, partial curve, poor fit].
In the case of `CCCn1cnc2c1CN(S(=O)(=O)c1ccc(F)cc1)[C@H](C(=O)OC)C2`, the Potency is reported as inconclusive [inhibitor, single point].
For `Cc1cc(C)c(CNC(=O)c2cc(-c3ccccc3C)cc3ncn(C)c23)c(=O)[nH]1`, the Potency was “inactive”.
`O=C(c1ccccc1Cl)N1CCC(C(=O)N2CCCC2c2nc3ccncc3[nH]2)CC1` (configuration not stated) was tested, and the Potency was inconclusive [inhibitor, single point].
For `COc1ccccc1CC(=O)N1CC[C@@H]2NC(=O)[C@H]3C[C@H](NC(=O)C4CCCC4)CN3C(=O)[C@H]21`, the Potency was inconclusive [inhibitor, single point].
In the case of `COc1ccc(OC)c(CN2CCC3(CC2)Nc2ccccc2NC3=O)c1`, the Potency is reported as inconclusive [inhibitor, partial curve].
`O=C1COCC2(CN1Cc1ccccc1)CN(c1cccnc1)C2` was tested, and the Potency was inconclusive [inhibitor, single point].
With `CCOCCOC1CCN(C(=O)c2cccc3[nH]ccc23)CC1` the Potency was “inactive”.
In the case of `CCCCCCCCCCCCCCCC(=O)OC(C)C`, the Potency is reported as “inactive”.
For `CC(C(=O)N1CCCN(c2cc(-c3ccccc3)[nH]n2)CC1)c1ccccc1` (configuration not stated), the Potency was inconclusive [inhibitor, partial curve].
`O=C1Nc2ccccc2C2(CCN(C(=O)c3ccccc3)C2)O1` (configuration not stated) was tested, and the Potency was inconclusive [inhibitor, single point].
`CCc1nc2c(c(-c3ccc(O)cc3)n1)CN(Cc1ccsc1)CC2` was tested, and the Potency was inconclusive [inhibitor, single point].
With `Cc1ccc(C(=O)N2CCC(n3cc(-c4nc(-c5ccccc5)no4)nn3)CC2)s1` the Potency was “inactive”.
For `O=C(Nc1cccc(-c2nnc3n2CCCC3)c1)c1ccc(F)c(F)c1`, the Potency was “inactive”.
With `COc1cccc(-c2ccc(CN3CCCC(N[S+](C)(=O)[O-])C3)cc2)c1` (configuration not stated) the Potency was inconclusive [inhibitor, single point].
For `COc1ccc(CN2CCOc3nc(-c4cccc(C#N)c4)ncc3C2=O)cc1`, the Potency was “inactive”.
In the case of `O=C1NC2(CCN(C(=O)OCc3ccccc3)C2)N=C1c1cccnc1` (configuration not stated), the Potency is reported as inconclusive [inhibitor, single point].
`COc1ccc(NC(=O)c2cccc3c2CCN3C(=O)c2ccc(F)cc2)c(OC)c1` was tested, and the Potency was inconclusive [inhibitor, single point].
With `COc1cccc2c1c(O)c(C(=O)N(C)c1ccc(C(F)(F)F)cc1)c(=O)n2C` the Potency was inconclusive [inhibitor, single point].
`FC(F)(F)c1ccc(CNc2ccc(Cc3c[nH]c4ncccc34)cn2)cc1` was tested, and the Potency was inconclusive [inhibitor, single point].
`CC1=C[C@@H](CNCc2cccnc2)[C@H](C(C)C)C[C@H]1Cc1nnc(-c2ccccc2)o1` was tested, and the Potency was “inactive”.
`O=C(c1ccccc1)N1CCC2(C1)C(=O)N(c1ccccc1)c1ccccc12` (configuration not stated) was tested, and the Potency was “inactive”.
`O=C(c1ccc(C(F)(F)F)cc1)N1CC(Oc2ccc(F)c(F)c2)C1` was tested, and the Potency was inconclusive [inhibitor, full curve, poor fit].
In the case of `COc1ccccc1-c1cccc(CN2CCCC(C(=O)NCc3ccc(C(F)(F)F)cc3)C2)c1` (configuration not stated), the Potency is reported as inconclusive [inhibitor, single point].
With `O=C(NCCc1ccccc1)C1CCC(=O)N(CCCN2CCOCC2)C1` (configuration not stated) the Potency was inconclusive [inhibitor, single point].
For `CCCNC(=O)O[C@@H]1CC[C@]2(C)C(CC[C@@H](O)[C@H]2CC(=O)NCc2ccccc2)[C@]1(C)CO` (some centres not stated), the Potency was inconclusive [inhibitor, partial curve, poor fit].
For `COc1ccc(-c2onc(C)c2C(=O)N2CCC(Cc3ccc(F)cc3)CC2)cc1`, the Potency was inconclusive [inhibitor, full curve, poor fit].
In the case of `COc1ccc(-c2nc(C3CC(=O)N(Cc4ccccc4OC)C3)no2)c(C)c1` (configuration not stated), the Potency is reported as inconclusive [inhibitor, single point].
`CCC1C(=O)NCCN1Cc1cn(-c2cccc(F)c2)nc1-c1ccc(C)o1` (configuration not stated) was tested, and the Potency was “inactive”.
With `OC[C@@H]1CNC[C@H]1C1CCN(Cc2cccc(C(F)(F)F)c2)CC1` the Potency was “inactive”.
In the case of `COc1cccc(NC(=O)Cc2c[nH]c3ncc(-c4cccnc4OC)cc23)c1`, the Potency is reported as inconclusive [inhibitor, single point].
For `COCc1nc(C2CC(N)C2)cc(N2CCC(Cn3cccn3)CC2)n1` (configuration not stated), the Potency was inconclusive [inhibitor, single point].
With `CC(=O)N1C[C@@H](C(=O)NCc2cccs2)[C@H](c2nc(C)no2)C1` the Potency was “inactive”.
For `CS(=O)(=O)NC1CCCN(c2cc(N3CCCC3)ncn2)C1` (configuration not stated), the Potency was inconclusive [inhibitor, single point].
With `Cc1c(CN2CCCC(c3ccc(C(=O)O)cc3)C2)cnn1C` (configuration not stated) the Potency was inconclusive [inhibitor, partial curve, poor fit].
With `COCCC1(NC(=O)C2CC2)CCN(C(=O)C2CC2)CC1` the Potency was “inactive”.
In the case of `O=C1CC2(CCN(C(=O)C3CCN(C(=O)c4ccc(C(F)(F)F)cc4)C3)CC2)Oc2ccccc2N1` (configuration not stated), the Potency is reported as “inactive”.
In the case of `O=C(NCC1CCCO1)c1noc(-c2ccccc2F)n1` (configuration not stated), the Potency is reported as inconclusive [inhibitor, single point].
With `CC(C)C[C@@H]1N[C@H](C(=O)NCCOc2ccccc2)Cc2cn(C)c3cccc1c23` the Potency was inconclusive [inhibitor, single point].

Reference: PubChem BioAssay AID1671188 (National Center for Advancing Translational Sciences (NCATS), 2021)
Note: nearly all actives have a fitted effect of over 60% in size.
Potency is the fitted concentration of half-maximal effect; tags give direction and shape of the fitted curve.
